According to PubChem BioAssay (NCI):
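Interpolation was linear, between the two tested concentrations surrounding the appropriate level; five concentrations were tested over 48 hours in 96-well plates. GI50 is the concentration that inhibits growth by half.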 A number of entries come with more than one value. This is not the full list of results. The source may hold further records. For some of these results: The values listed for one entry are repeated measurements in other runs, samples, wells, individuals or studies. Records carry a tag for their origin. Letters hold for one entry only.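 Definition used: TGI = concentration required for complete inhibition of growth.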 For some of these results: The tests behind the records often covered other concentration ranges, not given here; a value can be the end of its range.

Key:
Assay in all cases: growth of human tumour cells (NCI), 48 h
[1] = system: UO-31 renal
[2] = system: RPMI-8226 leukemia
[3] = system: HCC-2998 colon
[4] = system: HCT-116 colon
[5] = system: SF-539 CNS
[6] = system: ACHN renal
[7] = system: SR leukemia
[8] = system: NCI-H226 lung
[9] = system: MDA-MB-231 breast
[10] = system: U251 CNS
[11] = system: SNB-19 CNS
[12] = system: OVCAR-3 ovarian
[13] = system: MCF7 breast
[14] = system: KM12 colon
[15] = system: K-562 leukemia
[16] = system: OVCAR-4 ovarian
[17] = system: NCI-H23 lung
[18] = system: NCI/ADR-RES ovarian
[19] = system: SK-MEL-2 melanoma
[20] = system: HOP-92 NSCLC
[21] = system: CAKI-1 renal
[22] = system: HT29 colon

O=c1cc(N2CCOCC2)oc2c(-c3ccccc3)cccc12
TGI [1]: 89.2 µM [sample A] and 3.61 µM [sample B]

COC(=O)c1ccc2c(c1)CCN2C(=O)c1cc2c(cc1Br)OCO2
TGI [2]: 3.45 µM and 95 µM
TGI [3]: 4.23 µM and > 100 µM
TGI [4]: 8.7 µM and > 100 µM
TGI [5]: 791 nM and > 100 µM

CCCCCc1c(C)[nH]c(/C=C2\N=C(c3ccc[nH]3)C=C2Oc2ccc(OC)cc2)c1C
TGI [6]: 642 nM and 10.3 µM
TGI [7]: 541 nM and > 100 µM
TGI [8]: 645 nM and 6.95 µM
TGI [9]: 1.14 µM and 90.7 nM
TGI [10]: 1.23 µM and 123 nM

Nc1ncnc2c1ncn2C1OC(CO)C(O)C1O (stereo not drawn)
GI50 [1]: 19.8 µM [sample A, mean of 2 tests] and > 100 µM [sample B, 1 test] and 376 µM [sample C, mean of 6 tests]
GI50 [2]: 19.9 µM [sample A, mean of 2 tests] and > 100 µM [sample B, 1 test] and 305 µM [sample C, mean of 6 tests]
GI50 [11]: 9.62 µM [sample A, mean of 2 tests] and > 100 µM [sample B, 1 test] and 235 µM [sample C, mean of 5 tests]
TGI [3]: 5.72 µM [sample A] and > 100 µM [sample B] and 228 µM [sample C]
GI50 [12]: 7.02 µM [sample A, mean of 2 tests] and > 100 µM [sample B, 1 test] and > 419 µM [sample C, mean of 6 tests]
TGI [12]: 41.9 µM [sample A, mean of 2 tests] and > 100 µM [sample B, 1 test] and > 450 µM [sample C, mean of 6 tests]
GI50 [13]: 386 nM [sample A, mean of 2 tests] and 30.4 µM [sample B, 1 test] and 65.1 µM [sample C, mean of 5 tests]
TGI [13]: 12.5 µM [sample A, mean of 2 tests] and > 100 µM [sample B, 1 test] and > 435 µM [sample C, mean of 5 tests]
GI50 [14]: 32 µM [sample A, mean of 2 tests] and > 100 µM [sample B, 1 test] and 352 µM [sample C, mean of 6 tests]
GI50 [15]: 1.11 µM [sample A, mean of 2 tests] and > 100 µM [sample B, 1 test] and 361 µM [sample C, mean of 5 tests]
GI50 [16]: 27 µM [sample A, mean of 2 tests] and > 100 µM [sample B, 1 test] and > 450 µM [sample C, mean of 5 tests]
GI50 [17]: 18.4 µM [sample A, mean of 2 tests] and > 100 µM [sample B, 1 test] and 227 µM [sample C, mean of 5 tests]
TGI [18]: 28.2 µM [sample A] and > 100 µM [sample B] and > 450 µM [sample C]
GI50 [19]: 43.8 µM [sample A, 1 test] and > 450 µM [sample B, mean of 5 tests]
GI50 [20]: 4.95 µM [sample A, mean of 2 tests] and > 100 µM [sample B, 1 test] and 217 µM [sample C, mean of 4 tests]
TGI [20]: 35.3 µM [sample A, mean of 2 tests] and > 100 µM [sample B, 1 test] and > 436 µM [sample C, mean of 4 tests]
GI50 [21]: 20.6 µM [sample A, mean of 2 tests] and > 100 µM [sample B, 1 test] and 273 µM [sample C, mean of 6 tests]
GI50 [22]: 3.21 µM [sample A, mean of 2 tests] and > 100 µM [sample B, 1 test] and 288 µM [sample C, mean of 5 tests]
